Measurements from the RNAGym collection of RNA variant scans (doi:10.1093/nar/gkz1192).
The source gives no read counts; variants with many changes may rest on few reads.

B1: CPEB3 Ribozyme (parent)
chain: UAACAGGGGGCCACAGCAGAAGCGUUCACGUCGCAGCCCCUGUCAGAUUCUGGUGAAUCUGCGAAUUCUGCUGUAUAUCUC

Variants of: B1
Assay: self-cleavage, relative activity (ratio to wild type); higher = more cleavage; in vitro, sequencing
Procedure, shortened: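 For each CPEB3 ribozyme variant, relative activity is its cleaved/total read fraction divided by the unmutated ribozyme's. Barcoded error-prone PCR libraries were transcribed by T7 RNA polymerase (5 hours, 37°C) and held in DNase I for 15 min before an EDTA stop, with cleavage occurring throughout. Template-switching reverse transcription and Illumina sequencing were used to read the RNAs. A 5-read minimum applied, and results are the mean of three batches.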
For G9A C11U A18G A65G U67C U72G, the self-cleavage was 0.06. With G9A C12U A13G C44A U72C the self-cleavage was 0.1. For G9A C12U A57G U60A U78A, the self-cleavage was 0.13. For G9A C12U C32U A56G, the self-cleavage was 0.07. G9A C17G U41A U54A A65U U67A U80C gave a self-cleavage of 0.08. With G9A C23A U54C the self-cleavage was 0.19. With G9A C29A G63A A64G the self-cleavage was 0.05. In the case of G9A C29A U31C U51C A75G, the self-cleavage is reported as 0.07. Variant G9A C32G C40U U54A U78A has a self-cleavage of 0.05. Work on G9A C32U A35U A47U yielded a self-cleavage of 0.12. Work on G9A C32U A45G yielded a self-cleavage of 0.2. In the case of G9A C34U U51G C68U U74A, the self-cleavage is reported as 0.16. G9A C38A A45U G70U U72A showed a self-cleavage of 0.18. G9A C38G A57U showed a self-cleavage of 0.13. Variant G9A C39A U80A has a self-cleavage of 0.14. With G9A C39U U60C C71U the self-cleavage was 0.15. G9A G10C U25A U41A U43A A65G U72G gave a self-cleavage of 0.13. G9A G10C U51C U60C U66A showed a self-cleavage of 0.12. With G9A G16A G24U U26G G52C U58C the self-cleavage was 0.04. Work on G9A G19U C40A U41A A77G yielded a self-cleavage of 0.13. With G9A G22A U26C A77U the self-cleavage was 0.23. With G9A G30A A35U U60C U80C the self-cleavage was 0.07. Work on G9A G33A U60A C68U yielded a self-cleavage of 0.05. For G9A G55C U60C U67G, the self-cleavage was 0.06. For G9A U25A A45G, the self-cleavage was 0.19. With G9A U25A U31A U80C the self-cleavage was 0.06. For G9A U25C A35G A77G, the self-cleavage was 0.09. With G9A U25C U49G the self-cleavage was 0.03. In the case of G9A U26A C39U U51A U54A, the self-cleavage is reported as 0.24. Work on G9A U26C C34U A47U A56G A75G yielded a self-cleavage of 0.05. In the case of G9A U26C C59A U60C A75U, the self-cleavage is reported as 0.07. G9A U26C U31C G63A U74C U76C gave a self-cleavage of 0.06. G9A U26C U43A U60A G61A C62U gave a self-cleavage of 0.13. With G9A U31A A45U U51C U67C the self-cleavage was 0.12. G9A U31C A47G U48C A64G gave a self-cleavage of 0.13. For G9A U31C U60A, the self-cleavage was 0.11. Work on G9A U31G U54A U74C yielded a self-cleavage of 0.07. G9A U41A A45U showed a self-cleavage of 0.2. In the case of G9A U41A C68A, the self-cleavage is reported as 0.04. Variant G9A U41A U67A U74C A75G has a self-cleavage of 0.03. G9A U41C U51C U60C U78C showed a self-cleavage of 0.08. In the case of G9A U43C A45U A56G A57G U69A, the self-cleavage is reported as 0.06. With G9A U49A U72C the self-cleavage was 0.07. In the case of G9A U54C A56G U66C U78C U80C, the self-cleavage is reported as 0.04. Work on G9A U58C A75G yielded a self-cleavage of 0.14. For G9A U60A A64U, the self-cleavage was 0.05. G9A U60A C79U gave a self-cleavage of 0.23. Variant G9A U60A U67C has a self-cleavage of 0.05. In the case of G9A U60C U80C, the self-cleavage is reported as 0.19. Variant G9A U66C U69C has a self-cleavage of 0.07. With G9A U67C A77G the self-cleavage was 0.29. In the case of G9A U69A U76C, the self-cleavage is reported as 0.08. With G9A U69C U78A the self-cleavage was 0.2. Work on G9A U72A A77G yielded a self-cleavage of 0.46. Work on G9C A13G A57U U69G A77U U78C yielded a self-cleavage of 0.03. G9C A13G C29U A65G gave a self-cleavage of 0.03. G9C A15G A64G showed a self-cleavage of 0.07. In the case of G9C A15U U41C U58C, the self-cleavage is reported as 0.05. Variant G9C A18G G36A U60C has a self-cleavage of 0.05. For G9C A20G A21G U41C A64U U76C, the self-cleavage was 0.07. G9C A20U U43C U54C showed a self-cleavage of 0.17. With G9C A21G A47G A77U the self-cleavage was 0.07. In the case of G9C A21G U60C U72C, the self-cleavage is reported as 0.47. Variant G9C A64G U66C U69A U80C has a self-cleavage of 0.08. In the case of G9C A64G U76C, the self-cleavage is reported as 0.2. In the case of G9C C11A G24U A35G A57G U67C U78A, the self-cleavage is reported as 0.03. G9C C40A U67G U69C U72G U80C showed a self-cleavage of 0.02. In the case of G9C C44U A77G, the self-cleavage is reported as 0.16. In the case of G9C G10C A35G A57G G70C, the self-cleavage is reported as 0.16. Variant G9C G19C A20G has a self-cleavage of 0.08. In the case of G9C G53C U80C, the self-cleavage is reported as 0.16. G9C U51C U60A A77G gave a self-cleavage of 0.09. G9C U54G A56G U60C U66C gave a self-cleavage of 0.06. G9U A13G A18G A28G U78C gave a self-cleavage of 0.29. Variant G9U A13G A45G A77G has a self-cleavage of 0.06. Variant G9U A13G U26C A64G has a self-cleavage of 0.25. For G9U A13U A20G G46A, the self-cleavage was 0.43. G9U A15C G30U showed a self-cleavage of 0.13. G9U A15G A18U A20C A28U U66C showed a self-cleavage of 0.04. In the case of G9U A15G A28G, the self-cleavage is reported as 0.1. G9U A15G C38U U69C showed a self-cleavage of 0.07. For G9U A15G G73A U80G, the self-cleavage was 0.37. G9U A15U A28G U66C gave a self-cleavage of 0.14. G9U A15U G22U U26A A45G gave a self-cleavage of 0.17. Variant G9U A18G A45G G63C has a self-cleavage of 0.04. Variant G9U A18G U43C A75G has a self-cleavage of 0.04. G9U A18U A21G A45U C68A U80C gave a self-cleavage of 0.33. In the case of G9U A20G A28G G36C U54A A57G, the self-cleavage is reported as 0.13. G9U A20G U58C U69C gave a self-cleavage of 0.39. Variant G9U A20U G33C A45U U69A U72G has a self-cleavage of 0.02. Work on G9U A21G C23A yielded a self-cleavage of 0.12. For G9U A21G U43A U48G A64G, the self-cleavage was 0.08. Variant G9U A21G U51C U60A U80C has a self-cleavage of 0.05. G9U A28G U51C showed a self-cleavage of 0.21. Variant G9U A35C G52A U72C has a self-cleavage of 0.15. Variant G9U A56G A57U U58A U80C has a self-cleavage of 0.14. For G9U A56U U76C, the self-cleavage was 0.2. With G9U C11G A20G U26C A35G U41C U69A the self-cleavage was 0.04. Work on G9U C12U A35G U76C yielded a self-cleavage of 0.24. For G9U C14U A28G C34U U69A, the self-cleavage was 0.04. Variant G9U C29G U41C U48C U72C has a self-cleavage of 0. For G9U C29U A35G U67C, the self-cleavage was 0.1. G9U C34U U41C U60C A65G gave a self-cleavage of 0.05. G9U C34U U49C A64U showed a self-cleavage of 0.09. Work on G9U C38U U41A U54G U78C yielded a self-cleavage of 0.06. For G9U C40U A56G, the self-cleavage was 0.26. With G9U C44U A77G the self-cleavage was 0.1. For G9U G10U U41A U54A A64U A65G U74C, the self-cleavage was 0.04. With G9U G22A C32A U43A A64G U66A the self-cleavage was 0.03. Work on G9U G22U A57G yielded a self-cleavage of 0.13. In the case of G9U G22U U76A, the self-cleavage is reported as 0.03. G9U G24A U43A A56G U72A U80C showed a self-cleavage of 0.33. Variant G9U G24A U51C A57U U80A has a self-cleavage of 0.07. Variant G9U G52A A75G has a self-cleavage of 0.12. With G9U U25A A64G the self-cleavage was 0.33. Variant G9U U25C A35G has a self-cleavage of 0.07. G9U U25C A77G showed a self-cleavage of 0.18. Work on G9U U26A C29U A35U U41C U69C U80C yielded a self-cleavage of 0.03. With G9U U26C A28G A77G the self-cleavage was 0.05. Work on G9U U26C C32U yielded a self-cleavage of 0.06. With G9U U26C C59U C62A the self-cleavage was 0.09. With G9U U26C U41A A77G the self-cleavage was 0.15. G9U U31A U69C U72C showed a self-cleavage of 0.1. Variant G9U U31G A35G A57G U67C has a self-cleavage of 0.15. In the case of G9U U41A A47G A77G, the self-cleavage is reported as 0.11. G9U U41A A56G U58C showed a self-cleavage of 0.18. G9U U41C U43C U76A U80C showed a self-cleavage of 0.05. In the case of G9U U43A A77U, the self-cleavage is reported as 0.35. Variant G9U U43C A56G has a self-cleavage of 0.17. G9U U48C A56G U60C G70A showed a self-cleavage of 0.04. Variant G9U U48C A65G U72C has a self-cleavage of 0.05. Variant G9U U48C A65G U74C has a self-cleavage of 0.12. For G9U U51A A65G, the self-cleavage was 0.08. In the case of G9U U51C A57G U66C U69A, the self-cleavage is reported as 0.05. In the case of G9U U51C A65U, the self-cleavage is reported as 0.15. G9U U51C U69C U72G U80A gave a self-cleavage of 0.11. With G9U U60C U66C U69C the self-cleavage was 0.04. In the case of G9U U66C U78G, the self-cleavage is reported as 0.05. G9U U67C U72C showed a self-cleavage of 0.06. Work on G10A A13G A15G G22C C38U A56U yielded a self-cleavage of 0.05. With G10A A13G G36A U49C U51A A64G U74C the self-cleavage was 0.03. Variant G10A A13G U72C has a self-cleavage of 0.5. In the case of G10A A13U A20G A45U, the self-cleavage is reported as 0.46. With G10A A13U A45G the self-cleavage was 0.06. G10A A13U C79U showed a self-cleavage of 0.4. Variant G10A A13U U80A has a self-cleavage of 0.43. G10A A15C U60C U66C U78C showed a self-cleavage of 0.1. With G10A A15G A18U U26C U31C U54C U67C the self-cleavage was 0.19. G10A A15G A57G showed a self-cleavage of 0.28. For G10A A15G A65G, the self-cleavage was 0.24. G10A A15G U26C G36A C40U A56G gave a self-cleavage of 0.04. In the case of G10A A15U U25C U49C U51A A77G, the self-cleavage is reported as 0.03. For G10A A18G A35G A64U, the self-cleavage was 0.21. With G10A A18G A77G the self-cleavage was 0.17. With G10A A18G C32U U41C U51A U74C the self-cleavage was 0.16. In the case of G10A A18G G52A A64C, the self-cleavage is reported as 0.05. Work on G10A A18G U25A U72A U76C U78A yielded a self-cleavage of 0.05. For G10A A18G U25C A35G A64G A65G A77U, the self-cleavage was 0.03. G10A A18G U26A A64U U67C showed a self-cleavage of 0.1. With G10A A18G U31C C38U U69A the self-cleavage was 0.04. For G10A A18G U41C U78C, the self-cleavage was 0.08. In the case of G10A A18U A21G U43A A64C, the self-cleavage is reported as 0.11. G10A A18U A21U U25A U26C A56G C68A showed a self-cleavage of 0.04. In the case of G10A A18U A45U C62U A64U, the self-cleavage is reported as 0.14. In the case of G10A A18U A47G U48A, the self-cleavage is reported as 0.03. Work on G10A A18U A57G yielded a self-cleavage of 0.06. G10A A20G A28G A45G U72A U78A showed a self-cleavage of 0.15.
